Reference: PubChem BioAssay AID463173 (ICCB-Longwood Screening Facility, Harvard Medical School, 2010)
In all, about 52,000 compounds went through this assay and about 1,700 (3.3%) were called active. Rule as the data show it: active = survival mostly below about 52% (no sharp cut-off); inactive = mostly above about 56%. This is one part of the list.

system: Wild type; experiment: growth inhibition of S. aureus wild type versus tarO mutant, primary screen, teichoic acid synthesis inhibitors, RN4220, OD600 (AID 463173); settings: S. aureus RN4220 wild type/DeltatarO growth, OD600, 18 h, stronger effect = lower value, screened at 18.75 µg/mL (by protocol)

Row | SMILES | survival
1 | O=C(Nc1ccc2oc(-c3cccc4c(Br)cccc34)nc2c1)c1ccc(F)cc1 | inactive: 75%
2 | O=C(c1ccc2c(c1)N(Cc1ccccc1F)C(=O)c1ccccc1S2(=O)=O)N1CCOCC1 | inactive: 87%
3 | CCCN(Cc1cccs1)C(=O)Nc1cc(Cl)c(OC)cc1OC | inactive: 81%
4 | CCCN(CCC)CCCNC(=O)Cn1cnc2sc(C)c(S(=O)(=O)N3CCCCC3)c2c1=O | inactive: 88%
5 | CCOC(=O)c1oc2ccc(S(=O)(=O)n3nc(-c4ccccc4OC)cc3N)cc2c1C | inactive: 76%
6 | O=C(COC(=O)c1cc(-c2cccs2)nc2ccccc12)c1ccccc1 | inactive: 68%
7 | Cc1ccc(-c2nc3nc(C)cc(N4CCN(c5cc(Cl)ccc5C)CC4)n3n2)cc1 | inactive: 92%
8 | CCOCCCNC(=O)c1ccc2nc(CCc3ccccc3)oc2c1 | inactive: 49%
9 | COc1ccc(C2=NC3(CCCCC3)N(CC(=O)Nc3ccc(C(C)C)cc3)C2=O)cc1 | inactive: 84%
10 | COc1cccc(-n2c(SCC(=O)Nc3cc(C)ccc3C)nc3c(oc4ccccc43)c2=O)c1 | inactive: 96%
11 | COc1ccc(-c2cc(C(=O)Oc3ccccc3)c3cc(C)ccc3n2)cc1 | inactive: 11%
12 | CCn1c(=O)n(-c2ccc(C)c(F)c2)c(=O)c2sc3ccccc3c21 | inactive: 96%
13 | COc1cccc(CN2CCc3nc(Nc4ccc5c(c4)OCCO5)ncc3C2)c1 | inactive: 135%
14 | Cc1ccc2nc(N(Cc3cccnc3)C(=O)Cc3ccccc3)sc2c1 | inactive: 84%
15 | Cc1ccccc1Cn1c(SCc2ccc(C(=O)NC(C)c3ccccc3)cc2)nc2ccncc21 (configuration not stated) | inactive: 95%
16 | COc1cccc(C2CC(=O)Nc3cc4c(cc32)OCCO4)c1OC (configuration not stated) | inactive: 83%
17 | CCOC(=O)c1ccccc1NC(=O)Cn1ncc2c([nH]c3ccccc32)c1=O | inactive: 83%
18 | CCc1ccccc1NC(=O)CCn1nc(C)c2c(C)n(-c3ccccc3)nc2c1=O | inactive: 88%
19 | COc1ccc(C(=O)CN2CCN(S(=O)(=O)c3ccc(C(C)C)cc3)CC2)cc1 | inactive: 71%
20 | Fc1ccc(NCc2cccn2-c2nnc(N3CCOCC3)s2)cc1 | inactive: 60%
21 | CC1CCN(c2ncnc3c2cnn3-c2ccc(F)cc2)CC1 | inactive: 81%
22 | CCc1ccc(-n2c(=O)c3c4c(sc3n(CC(=O)NCCCOC)c2=O)CCCC4)cc1 | inactive: 129%

Row | SMILES | survival
23 | O=c1[nH]c2ccc(N=Cc3ccccc3C(F)(F)F)cc2[nH]1 | inactive: 116%
24 | O=C(NCCc1cccs1)c1ccc(Cn2c(SCc3ccc(F)cc3)nc3cccnc32)cc1 | inactive: 76%
25 | CCc1ccc(-c2nc(CN3CCC(C(=O)NCCc4ccc(Cl)cc4)CC3)c(C)o2)cc1 | inactive: 83%
26 | COc1cccc(NC(=O)c2sc3nc(C)c(C(=O)Nc4ccc(C)cc4C)c(-c4ccccc4Cl)c3c2N)c1 | inactive: 107%
27 | CC1CCN(C(=O)c2ccc3nc(N4C(=O)CCC4=O)sc3c2)CC1 | inactive: 105%
28 | Cc1ccc(CCNC(=O)c2ccc(NC(=O)N3CC(C)Sc4ccccc43)cc2)cc1 (configuration not stated) | inactive: 72%
29 | COC(=O)C1=C(c2ccccc2)c2ccccc2S(=O)(=O)N1CC(=O)Nc1cccc(C(C)=O)c1 | inactive: 84%
30 | O=C(Nc1ccc(Cl)cc1)C1CCN(S(=O)(=O)c2ccc(Br)s2)CC1 | inactive: 60%
31 | Cc1ccccc1C(=O)Nc1ccc(C(=O)OCc2cc(=O)n3nc(C4CC4)sc3n2)cc1 | inactive: 71%
32 | COc1ccc2c(c1)c1c(c(=O)n(Cc3ccccc3)c(=O)n1Cc1ccc(C)cc1)n2C | inactive: 87%
33 | Cc1ccc(-n2ncc(C(=O)NCCCN3CCc4ccccc4C3)c2C2CCN(C(=O)OC(C)(C)C)CC2)cc1C | inactive: 73%
34 | CC(CNC(=O)CN1C(=O)COc2ccc(S(=O)(=O)N3CCCCC3)cc21)c1ccccc1 (configuration not stated) | inactive: 93%
35 | CC(/C=C/c1ccco1)=N/NC(=O)Cc1cccs1 | inactive: 124%
36 | CN(CC(=O)NCc1ccccn1)S(=O)(=O)c1ccccc1 | inactive: 108%
37 | CC1CN(C(=O)Nc2ccc(C(=O)NCCc3ccccc3Cl)cc2)c2ccccc2S1 (configuration not stated) | inactive: 94%
38 | COC(=O)CSc1nc(N2CCOCC2)nc(N2CCOCC2)n1 | inactive: 107%
39 | O=C1CC(N2CCC(c3nc4ccccc4[nH]3)CC2)C(=O)N1 (configuration not stated) | inactive: 107%
40 | CCOC(=O)C1CCN(C(=O)c2cc3ccc4ccc(C)[nH]c4c3n2)CC1 | inactive: 60%
41 | CCC(C)NC(=O)c1[nH]c2cc(OC)ccc2c1Sc1ccc(C)cc1 (configuration not stated) | inactive: 84%
42 | COc1ccc(-c2cc(C(F)(F)F)n3nc(C(=O)Nc4sc5c(c4C#N)CCC(C)C5)cc3n2)cc1OC (configuration not stated) | inactive: 80%
43 | CCOc1ccc(NC(=O)CC2C(=O)N(c3cccc(C)c3)C(=O)N2Cc2ccco2)cc1 (configuration not stated) | inactive: 88%
44 | CC(=O)N1c2ccccc2C(=O)C1N1CCN(c2cc(Cl)ccc2C)CC1 (configuration not stated) | inactive: 138%

Row | SMILES | survival
45 | O=C(CSCc1cc(=O)c2ccccc2[nH]1)Nc1cccc(C(F)(F)F)c1 | inactive: 124%
46 | CC(=O)c1ccc(N2CCN(S(=O)(=O)c3ccc4[nH]c5c(c4c3)CCCCC5)CC2)cc1 | inactive: 81%
47 | CCOC(=O)c1cccc(NC(=O)c2cnn(-c3ccccc3)c2-n2cccc2)c1 | inactive: 63%
48 | O=C(CSc1nnnn1-c1ccc2c(c1)OCCO2)c1ccc2c(c1)OCCO2 | inactive: 103%
49 | CCC1CN(C(=O)Nc2ccccc2C(F)(F)F)c2ccccc2S1 (configuration not stated) | inactive: 136%
50 | Cc1ccc(CNC(=O)c2cc(S(=O)(=O)N3CCCCC3)cn2C)cc1 | inactive: 69%
51 | Cc1ccc2nc(CN3CCN(C(=O)Nc4cccc(C)c4C)CC3)oc2c1 | inactive: 70%
52 | CCC1CN(C(=O)N2CCC(C(=O)N(C)Cc3ccccc3)CC2)c2ccccc2O1 (configuration not stated) | inactive: 86%
53 | Cc1nc2c(-c3ccccc3)c(C)[nH]n2c(=O)c1Cc1ccc(C(C)C)cc1 | active: -5%
54 | CCS(=O)(=O)c1ncc(N(Cc2cccc(F)c2)Cc2ccco2)c(C(=O)Nc2ccccc2Cl)n1 | inactive: 83%
55 | COc1ccc(NC(=O)CN2C(=O)CC(c3ccco3)Sc3ccccc32)cc1OC (configuration not stated) | inactive: 84%
56 | COC(=O)c1scc(-c2ccc(C)cc2)c1S(=O)(=O)Nc1c(C)cc(C)cc1C | inactive: 136%
57 | CCCc1c(O)nc(SCC(=O)N2CCCCC2)[nH]c1=O | inactive: 103%
58 | CCOc1ccccc1NC(=O)CCNS(=O)(=O)c1ccc2c(c1)CCN2C(=O)C1CC1 | inactive: 81%
59 | CCCCS(=O)CC(O)CSc1nc(-c2ccc(OC)cc2)cc(-c2ccccc2)c1C#N (configuration not stated) | inactive: 76%
60 | Cc1ccc(/C=C/c2onc(C)c2S(=O)(=O)N2CCC(C(=O)NCc3ccc(N(C)C)cc3)CC2)cc1 | inactive: 80%
61 | COc1ccc(NC(=O)CN(c2ccc(C)cc2)S(=O)(=O)c2cccs2)cc1OC | inactive: 80%
62 | Cc1ccc(OCCCC(=O)Nc2sc3c(c2C(N)=O)CCCC3)cc1 | inactive: 57%
63 | Cn1ncc2c(N3CCN(c4ccccc4Cl)CC3)ncnc21 | inactive: 127%
64 | CCCCN(C)C(=O)Cn1ncc2c([nH]c3ccc(C)cc32)c1=O | inactive: 81%
65 | Fc1ccccc1N1CCN(c2c3c(nc4nncn24)CCC3)CC1 | inactive: 86%
66 | CCC(Sc1nnc(-c2ccc(OC)cc2)c(-c2ccc(OC)cc2)n1)C(=O)Nc1cccc(OC)c1 (configuration not stated) | inactive: 74%

Row | SMILES | survival
67 | Cc1cc(C)cc(NC(=O)c2cccc(N3CCCS3(=O)=O)c2)c1 | inactive: 70%
68 | COc1ccccc1NC(=O)c1sc2nc(-c3cc4ccccc4oc3=O)[nH]c(=O)c2c1C | inactive: 116%
69 | O=C(CSc1n[nH]c(-c2ccccc2)n1)c1cccs1 | inactive: 115%
70 | COc1ccc(C(=O)N/C(=C\c2cn(S(=O)(=O)N(C)C)c3ccccc23)C(=O)NCCCn2ccnc2)cc1 | inactive: 93%
71 | O=C(CSc1nnc(-c2ccccc2F)o1)N1CCc2ccccc21 | inactive: 86%
72 | O=C(Cc1ccc(Cl)cc1)NCC(c1cccs1)S(=O)(=O)c1ccc(Cl)cc1 (configuration not stated) | inactive: 58%
73 | Cc1cccc(C(=O)Nc2nnc(SCc3cc(=O)n4cccc(C)c4n3)s2)c1 | inactive: 71%
74 | CN(Cc1ccccc1)C(=O)C1CCN(Cc2cc3ccccc3n2Cc2ccccc2)CC1 | inactive: 71%
75 | Cc1cccc(NC(=O)c2c(NC(=O)c3ccco3)sc3c2CCC(C(C)(C)C)C3)c1 (configuration not stated) | inactive: 82%
76 | CCOC(=O)c1c(C)[nH]c(CCC(=O)Nc2cc(C)cc(C)c2)c1C | inactive: 126%
77 | O=C(Cn1nc(C(F)(F)F)c2c1CCCC2)Nc1ccc(Cl)cc1 | inactive: 69%
78 | Cc1ccc(-n2c3c(cc(-c4nc(-c5ccc(Cl)cc5)cs4)c2=O)C(=O)CC(C)(C)C3)cc1 | inactive: 80%
79 | COc1cc(OC)cc(C(=O)Nc2ccc(S(=O)(=O)Nc3onc(C)c3C)cc2)c1 | inactive: 86%
80 | COc1cccc(CNC(=O)CN2C(=O)CCn3nc(-c4cn(C)c5ccccc45)cc32)c1OC | inactive: 67%
81 | Cc1ccc(C(=O)N2C(C)CCCC2C)c(Cl)c1 (configuration not stated) | inactive: 118%
82 | CCOC(=O)c1cccc(NC(=O)c2cc(-c3ccc(Cl)s3)nc3ccccc23)c1 | inactive: 112%
83 | CN=CC1=C(O)C(C(=O)OC)C(C)(C)CC1=O (configuration not stated) | inactive: 105%
84 | CCc1ccc(N2C(=O)CSC23C(=O)N(Cc2cccc(F)c2)c2ccccc23)cc1 (configuration not stated) | inactive: 146%
85 | COc1ccc(NC(=O)Cn2ncc3c([nH]c4ccccc43)c2=O)cc1Cl | inactive: 73%
86 | CCN(CC)CCCNC(=O)c1cn(C)c2ccc(S(=O)(=O)N3CCOCC3)cc2c1=O | inactive: 84%
87 | Cc1ccc(NC(=O)CSc2nc(C)cc(C)c2C(=O)Nc2cccc(C)c2)cc1 | inactive: 79%
